# Source: the supplement of paper PMC5499739
# In all, about 16,000 sequences were measured (“Z-score”: median about -0.37, highest 2% from about 3.1 on). The list shows a part of the results.
# Test system: RBM10 RRM1-ZnF-RRM2 (GST-tagged construct)
# Test: RNAcompete 7-mer binding Z-score; higher = stronger binding preference
# In short: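 GST-tagged RBM10 constructs (20 pmol) and a designed pool of 241 399 RNAs up to 41 nt (1.5 nmol) were allowed to bind for 30 min at 4°C in 1 ml Hepes pH 7.8 buffer with glutathione Sepharose beads. After four 2-min washes at 4°C, bound RNA was identified by microarray hybridisation. Enrichment was scored per heptamer motif as a one-sided Z-score across the probes containing it.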
row,Sequence,RNAcompete 7-mer binding Z-score
1,CAGAACA,-0.275
2,UCCGGCG,-0.373
3,CAAGAAG,0.556
4,GUAGACA,1.12
5,GUGCAGU,0.432
6,UCACAGG,0.621
7,CAGUAGU,-0.00148
8,CUUCCUA,-0.868
9,UCGUCGG,-0.154
10,CCAAAGA,-0.347
11,UGUCCGA,-0.81
12,CCAAGCG,-0.202
13,CUUGUAA,-0.621
14,AGGGGAA,3.56
15,CCUAUAG,-0.788
16,UCGUAUA,-0.209
17,UUUUGGA,-0.0197
18,ACCAUCC,-0.938
19,AAUUGGC,0.65
20,CGUCGUG,-0.0743
21,AAAAUGC,-0.00148
22,UAAGCUC,-0.704
23,UGUGUCG,-0.114
24,GUGCGAA,0.614
25,UAGGCGC,-0.18

row,Sequence,RNAcompete 7-mer binding Z-score
1,AAAUUGC,-0.464
2,AUGUGAG,1.01
3,GUAUACG,0.268
4,AGGGAAU,3.2
5,UGCGCCA,-0.442
6,UAGCAUU,-0.515
7,AGGACAC,0.348
8,GAAGUAC,0.13
9,GUGGUCA,0.996
10,GACCCUA,-0.887
11,UAGCCAA,-0.278
12,GUCUCGA,-0.53
13,UACACUG,-0.289
14,GACGCAU,-0.231
15,AACAUGC,-0.435
16,AUCUCAA,-0.752
17,CCUCCCA,-0.551
18,GACACAA,-0.337
19,ACAUGGG,3.03
20,AUGCAAG,0.443
21,UUGAUAG,0.119
22,UGCUCAC,-0.65
23,ACGCACU,-0.788
24,CAUAUGU,-0.439
25,CACGCAU,-0.621

row,Sequence,RNAcompete 7-mer binding Z-score
1,ACGGUUC,0.0277
2,CCUUACA,-0.945
3,ACAACCG,-0.42
4,GUAGAGA,1.44
5,CAGUUAG,0.108
6,UACCCCA,-0.584
7,CGGCGGA,1.02
8,CCAAACU,-0.839
9,CCUACUG,-0.832
10,CCUUUAA,-0.963
11,UAUGGCU,-0.253
12,GGCUCUA,-0.471
13,AACCUGG,-0.322
14,UAUGUGU,0.0641
15,CAAGGAG,2.31
16,UCCCGGU,-0.0306
17,UGGCAUC,-0.205
18,GCCAAGC,-0.235
19,ACAGCUU,-0.854
20,AGUAUUG,0.024
21,UAUAAGU,-0.289
22,UGCGUUU,-0.475
23,CUGCAGC,-0.635
24,ACGGCGA,0.723
25,AUGUGCC,-0.482

row,Sequence,RNAcompete 7-mer binding Z-score
1,ACGACGU,-0.289
2,AGCGCGA,-0.0743
3,AUUCGUG,-0.114
4,CGCCUUC,-0.959
5,ACAGCAC,-0.176
6,GGCGCUC,-0.158
7,GACUAGG,1.32
8,AAAGUAA,0.111
9,AUUGCUC,-0.748
10,UCCAUUG,-0.759
11,UUUAGGG,1.51
12,CCACACU,-0.781
13,UCGGUUC,-0.442
14,CCCCCAG,-0.304
15,AUUACCC,-0.905
16,GAUUGUU,-0.3
17,GCCCAAG,-0.398
18,ACCGCAA,-0.85
19,GCUCGUG,-0.14
20,ACAUUUU,-0.93
21,GGGGGUC,2.06
22,CUAAAGG,0.505
23,CAGGGAU,2.41
24,GGGGGAC,1.91
25,ACCCAGA,-0.686
